Assay results taken from PubChem BioAssay AID624202 (National Center for Advancing Translational Sciences (NCATS), 2012).
In all, about 380,000 compounds went through this assay and about 4,000 (1.1%) were called active. The shares of active, inactive and inconclusive entries below differ from those in the screen. Calls follow the shape of the dose curve; as a rule, active = well fitted activation curve with a large enough effect; inconclusive = small, poorly fitted or top-dose-only effect; inactive = no such curve, though single readings can be large or run the other way. A potency beside an inconclusive call is a rough fit, not a confirmed value.

Test: qHTS Assay to Identify Small Molecule Activators of BRCA1 Expression; also: nearly all actives have a fitted effect of over 80% in size
Conditions: MCF7-BRCA1-FFLuc reporter, luminescence, 48 h; activation: at 46.1 µM (top of the series), scaled: vehicle 0%, 10 µM genistein 100% unless noted
How it was run: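 MCF7 cells carrying a BRCA1-firefly luciferase reporter (2000 cells/well, phenol-red free MEM) were attached for 2 h at 37 °C, then given compounds for 48 h. Luminescence was read 15 min after luciferase reagent; activity normalized to genistein (10 microM) and DMSO.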
Potency is read from the fitted curve at half-maximal effect; tags tell the direction and shape of the fitted curve.

Row | Structure (SMILES) | Potency | activation
1 | O=C(CSc1nnc2ccccn12)c1ccc2c(c1)OCCO2 | active: 7.08 µM | 
2 | c1ccc(Nc2nc(N3CCCCC3)nc(N3CCCCC3)n2)cc1 |  | inactive: -49%
3 | Clc1ccc(Cn2cc3c(n2)-c2cc4ccccc4n2C3)cc1 |  | inactive: 16.7%
4 | CC(=Nc1ccccc1)C1=C(O)C(Cc2ccc(O)cc2)NC1=O (centres undefined) |  | inconclusive: -94.6% [activator]
5 | CC1CCc2c(C(=O)Nc3nccs3)csc2C1 (centres undefined) | active: 12.6 µM | 
6 | CCCCN(C)C(=O)CCCc1c[nH]c2ccccc12 | inconclusive: 22.4 µM [activator, single point] | 
7 | COc1ccc(-c2cc(-c3ccc(OC)cc3)[nH]n2)cc1 | inconclusive: 6.31 µM [activator, full curve, poor fit] | 
8 | CCCCN(C)C(=O)c1cc2cc3cc(OC)ccc3nc2o1 | active: 6.31 µM | 
9 | CCOCC(=O)Nc1nnc(C2CCCCC2)s1 | inconclusive: 10 µM [activator, partial curve, poor fit] | 
10 | O=C(COC(=O)c1ccccc1[N+](=O)[O-])c1ccc2c(c1)OCO2 | inconclusive: 7.94 µM [activator, partial curve, poor fit] | 
11 | Fc1cccc(Cl)c1CSc1nnc2ccccn12 | inconclusive: 10 µM [activator, partial curve, poor fit] | 
12 | Cc1ccc(C(=O)Nc2ccc3c(c2)CCC3)cc1S(=O)(=O)N1CCOCC1 | inconclusive: 14.1 µM [activator, partial curve, poor fit] | 
13 | Nc1nc(Nc2ccccc2)nc2ccccc12 | inconclusive: 0.631 µM [activator, full curve, poor fit] | 
14 | CC(=O)Nc1ccc(NC(=O)c2ccccc2-n2cnnn2)cc1 |  | inactive: -11.2%
15 | O=c1c2ccccc2nnn1Cc1nnc(-c2ccccc2Br)o1 | inconclusive: 14.1 µM [activator, partial curve, poor fit] | 
16 | COCCn1c(C)cc(/C=C2/NC(=O)N(c3cccc(Cl)c3)C2=O)c1C | active: 7.94 µM | 
17 | CCCCc1nc2cc(C(=O)N3CCC(OC)CC3)ccc2o1 | inconclusive: 20 µM [activator, partial curve, poor fit] | 
18 | N/C(=N\OC(=O)/C=C/c1ccccc1Cl)c1cccnc1 | active: 3.98 µM | 
19 | O=C(N/N=C1\CCCc2oc(C(=O)O)cc21)c1ccccc1 | inconclusive: 35.5 µM [activator, single point] | 
20 | CC1CCN(C(=O)CNC(=O)c2ccc(Br)o2)CC1 | inconclusive: 2.82 µM [activator, partial curve, poor fit] | 
21 | Cc1cccc(C(=O)n2c(=S)nc3ccccn32)c1 | inconclusive: 2.24 µM [activator, partial curve, poor fit] | 
22 | Nc1nc2ccccc2n1/N=C/c1ccc(-c2ccccc2)o1 | inconclusive: 8.91 µM [activator, partial curve, poor fit] | 
23 | COc1ccc(CNC(=S)N/N=C(/C)c2ccccc2)cc1 | active: 7.08 µM | 
24 | O=C1CCn2nc(-c3ccc(Cl)cc3)cc2N1 | active: 3.98 µM | 
25 | CN(Cc1cnc2nc(N)nc(N)c2n1)c1ccc(C(=O)NC(CCC(=O)O)C(=O)O)cc1 (centres undefined) |  | inconclusive: -76.8% [activator]

Row | Structure (SMILES) | Potency | activation
26 | O=[N+]([O-])c1cccc(-c2ccc(/C=N/NC(=S)Nc3ccccc3)o2)c1 |  | inactive: 25.4%
27 | CCOc1cc(C(=O)NCCc2ccc(S(N)(=O)=O)cc2)cc(OCC)c1OCC |  | inactive: -5.4%
28 | CC(C)c1ccc(NC(=O)CSc2nnc(-c3ccccc3)n2C)cc1 |  | inactive: 17.1%
29 | Cc1ccc(-c2nc3ccc(Cl)cn3c2CC2CCCCC2)cc1 | inconclusive: 1 µM [activator, full curve, poor fit] | 
30 | O=C(c1ccc(Cl)s1)N1CCc2ccccc21 | active: 11.2 µM | 
31 | CCCCOC(=O)c1[nH]c(C)c(C(=O)OC)c1C | inconclusive: 7.94 µM [activator, partial curve, poor fit] | 
32 | Cc1ccc([C@H]2C[C@@H](n3cc(-c4ccc(F)cc4)nn3)[C@H](O)CN2Cc2cccs2)cc1 |  | inactive: -21.3%
33 | Cc1cccc2nc(CSc3ccccc3N)cn12 | inconclusive: 2 µM [activator, partial curve, poor fit] | 
34 | CNC(=O)Nc1cccc(NC(=O)NC)n1 |  | inactive: -9.7%
35 | CCOc1ccc(N/C(C)=C\C(=O)c2ccc3c(c2)OCCO3)cc1 | active: 12.6 µM | 
36 | O=C(c1cc(-c2ccccc2O)on1)N1CCCCCC1 | inconclusive: 3.55 µM [activator, partial curve, poor fit] | 
37 | Cc1ccsc1/C=C(\CC(=O)O)c1nc2ccccc2o1 | active: 7.94 µM | 
38 | N/C(=N\OC(=O)c1ccc(Cl)cc1)c1ccc(Cl)cc1 | active: 11.2 µM | 
39 | COc1ccc2c(c1)c(CC(=O)Nc1ccccc1OC)c(C)n2C(=O)c1ccc(Cl)cc1 |  | inactive: -53.6%
40 | c1ccc(-c2nc3ccccc3s2)nc1 | active: 8.91 µM | 
41 | C/C(=N\Nc1ccc(Cl)c(C(=O)O)c1)c1ccccn1 | inconclusive: 25.1 µM [activator, single point] | 
42 | N#Cc1ccccc1CSc1nnc(-c2ccccc2)o1 | inconclusive: 2.82 µM [activator, partial curve, poor fit] | 
43 | CCN(CC)CCN(Cc1cc2ccc(C)cc2[nH]c1=O)C(=S)Nc1ccccc1C(=O)OC |  | inactive: -26%
44 | COC(=O)c1ccc(N=Nc2ccccc2)cc1 | active: 10 µM | 
45 | O=C(CNC(=O)c1ccccc1F)N/N=C/c1ccc2c(c1)OCO2 | inconclusive: 10 µM [activator, partial curve, poor fit] | 
46 | COc1ccc(C(=O)NCCc2c[nH]c3ccccc23)cc1 | active: 5.62 µM | 
47 | O=[N+]([O-])c1cccc(COc2ccc(CN3CCCCC3)cc2)c1 | inconclusive: 11.2 µM [activator, partial curve, poor fit] | 
48 | CCOCCCNC(=O)c1ccc(/C=C2\Oc3ccccc3N(C)C2=O)cc1 | inconclusive: 1.78 µM [activator, full curve, poor fit] | 
49 | O=C(CSc1nc2ccccc2[nH]1)c1ccc2c(c1)OCO2 | inconclusive: 11.2 µM [activator, partial curve, poor fit] | 
50 | COc1cccc(NC(=O)c2cnn(-c3ccccc3)c2C)c1 | inconclusive: 0.631 µM [activator, full curve, poor fit] | 

Row | Structure (SMILES) | Potency | activation
51 | [O-]/C(=C(\C(=S)Nc1ccc(SC(F)F)cc1)[n+]1ccccc1)c1ccc(Cl)cc1Cl |  | inactive: -47.7%
52 | COc1cccc(C(=O)Nc2ccc3c(c2)CCCN3C(=O)c2cccs2)c1OC |  | inactive: 7.97%
53 | CC(=O)Nc1ccc(S(=O)(=O)N2CCN(Cc3ccccc3[N+](=O)[O-])CC2)cc1 |  | inactive: -29.2%
54 | Cc1cc(C(=O)CSc2nnnn2-c2ccccc2)c(C)n1CC1CCCO1 (centres undefined) | inconclusive: 1.78 µM [activator, full curve, poor fit] | 
55 | COC(=O)c1sccc1N/N=C/c1cccc(Oc2ccccc2)c1 | inconclusive: 1.58 µM [activator, full curve, poor fit] | 
56 | Cc1cccc(OCCCn2c(CO)nc3ccccc32)c1 | inconclusive: 35.5 µM [activator, single point] | 
57 | O=C(/C=C/c1ccc2ccccc2c1)c1ccoc1 | active: 12.6 µM | 
58 | CCOC(=O)c1ccc(OCC2c3cc(OC)c(OC)cc3CCN2C(=O)Cc2ccc(OC)c(OC)c2)cc1 (centres undefined) |  | inactive: 0.141%
59 | CCOc1ccc2nc(N3CCCCCC3)sc2c1 | inconclusive: 2 µM [activator, partial curve, poor fit] | 
60 | O=C(NC12CC3CC(CC(C3)C1)C2)c1ccc(-c2ccccc2Cl)o1 | inconclusive: 1.41 µM [activator, full curve, poor fit] | 
61 | Nc1ccc(C(=O)N/N=C/c2ccccc2)cc1 | inconclusive: 11.2 µM [activator, partial curve, poor fit] | 
62 | COc1cccc(N2CCN(c3ncccn3)CC2)c1 | inconclusive: 14.1 µM [activator, partial curve, poor fit] | 
63 | Cc1nn(Cc2ccccc2Cl)c(Cl)c1C(=O)NCCc1ccccc1 | inconclusive: 8.91 µM [activator, partial curve, poor fit] | 
64 | COCCn1c(-c2ccccc2)cnc1N |  | inactive: -10.8%
65 | Cc1ccc(-n2c(SCC(=O)N3CCC(C(=O)O)CC3)nc3ccccc3c2=O)cc1C | active: 4.47 µM | 
66 | CNc1cnc(-c2ccc(F)c(F)c2F)cn1 | inconclusive: 2.82 µM [activator, full curve, poor fit] | 
67 | CCN(CC)C(=O)Oc1ccc2c(=O)c(-c3ccccc3)coc2c1 | inconclusive: 0.631 µM [activator, full curve, poor fit] | 
68 | COc1ccc(Br)c(Cn2c(C)c(C(=O)NCc3ccc(F)cc3)sc2=O)c1 |  | inactive: -24.5%
69 | CC1=C(C(=O)N(C)C)CC(CC(=O)NC2CCCCC2)C(=O)N1CCC1=CCCCC1 (centres undefined) | inconclusive: 7.08 µM [activator, partial curve, poor fit] | 
70 | CC(=O)Nc1c(O)nc(SCC(=O)Nc2ccc(C(C)=O)cc2)[nH]c1=O | inconclusive: 11.2 µM [activator, partial curve, poor fit] | 
71 | CC(=O)NC12CC3CC(C1)CC(C(=O)NCc1ccc(C)cc1)(C3)C2 |  | inactive: -4.03%
72 | CCOC(=O)c1ccc(Nc2cnc3ccccc3n2)cc1 | inconclusive: 6.31 µM [activator, partial curve, poor fit] | 
73 | COC(=O)c1c(NC(=O)C2CC2)sc(C(=O)Nc2ccccc2)c1C | inconclusive: 1.41 µM [activator, full curve, poor fit] | 
74 | COc1cc(N(C)C)ccc1/C=C/c1ccnc2ccccc12 | inconclusive: 14.1 µM [activator, single point] | 
